# Reference: PubChem BioAssay AID1466 (National Center for Advancing Translational Sciences (NCATS), 2008)
# Where “and” joins values, the source holds several entries; their conditions need not be identical. Identical values can stand only once. In all, about 200,000 compounds went through this assay and about 10 (0.005%) were called active. The inconclusive results got no clear call from the source; some entries with a clear call stand among them for comparison. Calls follow the shape of the dose curve; as a rule, active = well fitted inhibition curve with a large enough effect; inconclusive = small, poorly fitted or top-dose-only effect, or effect the other way, or another doubt; inactive = no such curve, though single readings can be large or run the other way. A potency beside an inconclusive call is a rough fit, not a confirmed value.
# Biological target: Lysosomal alpha-glucosidase (Homo sapiens) (UniProt P10253)
# Assay: qHTS Assay for Inhibitors of Human alpha-Glucosidase as a Potential Chaperone Treatment of Pompe Disease;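 as to activity change, negative = inhibition: plate controls were uninhibited enzyme wells for no effect and no-enzyme background for full effect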
# Settings: purified human GAA, 4-MU-alpha-glucoside fluorescence; activity change, negative = inhibition: at 76.9 µM (top of the series) unless noted
# Summary of the method: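 Fluorogenic assay: 4 nM human alpha-glucosidase with 400 uM 4-methylumbelliferyl-alpha-D-pyranoside in 50 mM citrate/phosphate, 0.005% Tween-20, pH 5.0, 20 min at room temperature. Compounds tested up to 77 uM; AC50 from Hill fits.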
# Potency is read from the fitted curve at half-maximal effect; tags tell the direction and shape of the fitted curve.
SMILES,Potency,"activity change, negative = inhibition"
CCCn1nc(NC(=O)c2ccccn2)c2cc3cc(C)ccc3nc21,"inconclusive: 25.1 µM [activator, partial curve]",
COc1cc2nc(N3CCN(C(=O)C4CCCO4)CC3)nc(N)c2cc1OC (centres undefined),"inconclusive: 35.5 µM [activator, partial curve] and inconclusive: 25.1 µM [activator, partial curve] and inconclusive: 39.8 µM [activator, partial curve]",
Cc1ccc(CNC(=O)Nc2ccc3c(c2)N(C)C(=O)CS3)cc1,"inconclusive: 2.24 µM [inhibitor, full curve]",
CC(C)n1cc(/C=C2\NC(=O)N(c3cccc(Cl)c3)C2=O)c2ccccc21,"inconclusive: 10 µM [inhibitor, full curve]",
Cn1c2ccccc2n2c(=O)c(=O)n(CC(=O)c3ccc(F)cc3)nc12,"inconclusive: 31.6 µM [inhibitor, single point]",
Nc1ccc(Cc2nc3c(ccc4ccccc43)[nH]2)cc1,"inconclusive: 50.1 µM [inhibitor, single point]",
O=C(Nc1ncc(Cc2cccc(Cl)c2Cl)s1)C1CCCO1 (centres undefined),,inconclusive: 15.1% [activator]
O=C(c1cc(-c2ccco2)on1)N1CCN(C(c2ccccc2)c2ccccc2)CC1,"inconclusive: 7.08 µM [activator, single point]",
Oc1ccc(NCc2ccccc2OCc2ccccc2F)cc1,,inactive: -0.0803%
CCN(c1cccc(C)c1)S(=O)(=O)c1ccc(OC)c([N+](=O)[O-])c1,"inconclusive: 8.91 µM [inhibitor, full curve]",
C=CCN(c1ccccc1C(=O)NCC(=O)OCC)S(=O)(=O)c1ccc(C)cc1,,inactive: -5.41%
CCCOc1ccc(N2CC(C(=O)Nc3ccccc3C(=O)NC)CC2=O)cc1 (centres undefined),,inconclusive: 14.3% [activator]
O=C(COc1ccc(S(=O)(=O)NC2CCCCC2)cc1Cl)NCc1ccc2c(c1)OCO2,"inconclusive: 50.1 µM [inhibitor, partial curve, poor fit]",
CC1CN(C(=O)Nc2ccccc2)c2ccccc2-[n+]2ccsc21 (centres undefined),"inconclusive: 25.1 µM [inhibitor, partial curve]",
COc1ccc(NC(=O)CN2CCN(S(=O)(=O)c3ccc(C(C)C)cc3)CC2)cc1OC,"inconclusive: 39.8 µM [inhibitor, partial curve]",
O=C(CC1Nc2ccccc2NC1=O)Nc1ccccc1NC(=O)CC1Nc2ccccc2NC1=O (centres undefined),"inconclusive: 56.2 µM [activator, single point]",
COc1cc(-c2nc3ccccn3c2NCC2CCCO2)ccc1O (centres undefined),,inactive: 2.87%
Cc1ccc(S(=O)(=O)N2CC3CCCN3c3ccc(C(F)(F)F)cc32)cc1 (centres undefined),"inconclusive: 2.24 µM [inhibitor, full curve]",
Cc1cc(C)n(-c2cc(C(C)(C)C)nc3c(-c4ccc(Cl)cc4)cnn23)n1,"inconclusive: 25.1 µM [inhibitor, partial curve]",
CCC(CC)NC(=O)/C=C/c1cccc([N+](=O)[O-])c1,"inconclusive: 12.6 µM [inhibitor, single point]",
COCCOC(=O)c1cc(C(=O)c2cc(F)ccc2O)coc1=N,"inconclusive: 28.2 µM [activator, partial curve]",
CCCC(=O)Nc1nc2nc(-c3ccccc3)cc(-c3ccccc3)n2n1,"inconclusive: 31.6 µM [activator, single point]",

SMILES,Potency,"activity change, negative = inhibition"
CC(c1ccco1)N(C(=O)C12CC3CC(CC(C)(C3)C1)C2)c1ccccn1 (centres undefined),"inconclusive: 11.2 µM [inhibitor, single point]",
CCc1ccc(-c2cc(C(=O)NCc3ccco3)c3ccccc3n2)s1,"inconclusive: 50.1 µM [activator, single point]",
CCOC(=O)CC(=O)CSCC(=O)Nc1ccc(C)cc1,"inconclusive: 11.2 µM [inhibitor, single point]",
C=CCc1cccc2cc(C(=O)Nc3ccc(F)cc3)c(=O)oc12,,inconclusive: -17.1% [inhibitor]
CCOc1ccccc1NC(=O)CCC(=O)Nc1ccccc1OCC,"inconclusive: 50.1 µM [inhibitor, partial curve]",
COc1ccc(OC)c(-c2csc(NC(=O)c3ccc(OCC4CCCO4)cc3)n2)c1 (centres undefined),,inconclusive: -19.4% [inhibitor]
O=c1cc(CSc2nc(NCc3ccccc3)c3ccccc3n2)nc2ccc(Cl)cn12,"inconclusive: 6.31 µM [inhibitor, single point]",
O=C(COC(=O)CNC(=O)C1CCCCC1)Nc1ccc2c(c1)OCCO2,,inactive: 5.64%
COCC(=O)N(Cc1cc2cc(OC)ccc2[nH]c1=O)c1ccccc1OC,"inconclusive: 50.1 µM [activator, single point]",
CCOC(=O)CSc1nc2cc(C(=O)NCc3ccco3)ccc2c(=O)n1-c1ccc(F)cc1,"inconclusive: 0.562 µM [inhibitor, full curve, poor fit]",
O=C(COc1cccc(Cl)c1)N/N=C\c1cc2ccccc2nc1Cl,"inconclusive: 28.2 µM [activator, single point]",
Cc1ccc(S(=O)(=O)Nc2ccccc2C=Nc2cccc(C)c2C)cc1,"inconclusive: 5.01 µM [inhibitor, single point]",
COC(=O)CSC1=C(C#N)C(c2ccccc2)CC(=O)N1 (centres undefined),,inactive: -8.16%
COc1cccc(OCCSc2nc(N)cc(N)n2)c1,,inactive: -10.8%
CCn1ccnc1CN(C)Cc1cn(-c2ccc(C)cc2)nc1-c1cccc(C)c1,"inconclusive: 31.6 µM [inhibitor, single point]",
CC(C)N(Cc1cnn(C)c1)Cc1nc(Cc2ccccc2Cl)no1,"inconclusive: 1.41 µM [activator, full curve, poor fit]",
CCOC(=O)N1CCC(NC(=O)C2CCN(C(=O)c3cc4oc(C)cc4n3Cc3c(F)cccc3Cl)CC2)CC1,"inconclusive: 0.794 µM [inhibitor, full curve, poor fit]",
N/C(CSc1ccc(Cl)cc1)=N\S(=O)(=O)c1ccc(Cl)cc1,"inconclusive: 31.6 µM [inhibitor, partial curve]",
O=C(CC1C(=O)NCCN1Cc1ccoc1)NCCCn1ncc2ccccc21 (centres undefined),,inconclusive: 10.8% [activator]
CCNc1ccc(C(=O)OCC(=O)NCCN2C(=O)CSC2=O)cc1[N+](=O)[O-],,inactive: 7.57%
CCc1c(C(=O)NNC(=S)NC2CCCCC2)csc1C,,inactive: -1.8%
Cc1ccccc1SC1CCN(Cc2nc(C3CC3)no2)CC1,"inconclusive: 0.158 µM [activator, full curve, poor fit]",

SMILES,Potency,"activity change, negative = inhibition"
CCOC(=O)c1cc2c3ccccc3n(CC)c2nc1N,"inconclusive: 25.1 µM [activator, partial curve]",
CCCCC(c1nnnn1CC1CCCO1)N1CCN(c2cccc(C)c2C)CC1 (centres undefined),"inconclusive: 56.2 µM [inhibitor, single point]",
C=CCNC(=O)c1c(N)n(-c2cccc(S(N)(=O)=O)c2)c2nc3ccccc3nc12,"inconclusive: 25.1 µM [activator, partial curve]",
COc1ccc(C(=O)/C=C/Nc2c(C)n(C)n(-c3ccccc3)c2=O)cc1OC,"inconclusive: 50.1 µM [inhibitor, single point]",
O=C(/C=C/c1ccc(OCCCF)cc1)NCc1cccc(Cl)c1,"inconclusive: 4.47 µM [inhibitor, partial curve]",
O=C(Cc1ccc2c(c1)OCCO2)N1CCN(S(=O)(=O)c2ccccc2C(F)(F)F)CC1,,inconclusive: -19.8% [inhibitor]
S=C(NCCc1ccccc1)Nc1cccc2cnccc12,,inactive: -10.1%
OC(COc1ccc(Cl)cc1)CN1C2=NCCCN2c2ccccc21 (centres undefined),"inconclusive: 11.2 µM [inhibitor, full curve]",
COC(=O)NC(NS(=O)(=O)c1ccccc1)(C(=O)OC)C(F)(F)F (centres undefined),"inconclusive: 25.1 µM [inhibitor, single point]",
O=C(Nc1ccccn1)c1cccc(S(=O)(=O)N2CCOCC2)c1,"inconclusive: 31.6 µM [inhibitor, partial curve, poor fit]",
CCOc1cc(CNc2ccccc2)cc(Br)c1OCC(=O)NC(C)(C)C,"inconclusive: 1.78 µM [inhibitor, full curve, poor fit]",
NC(=S)N=Nc1c(O)[nH]c2c(Br)cc(Br)cc12,"inconclusive: 50.1 µM [inhibitor, single point]",
Cc1cccc(OCCCC(=O)Nc2ccc(Br)cc2)c1,"inconclusive: 50.1 µM [inhibitor, single point]",
Cc1nnc(NC(=O)c2cccc(F)c2)s1,"inconclusive: 12.6 µM [inhibitor, single point]",
CCN(CC)c1cc(NCCO)c([N+](=O)[O-])c2nonc12,"inconclusive: 31.6 µM [inhibitor, single point]",
Cn1cccc1C(=O)C(=O)Nc1ccc(Cl)cc1,,inconclusive: 11.2% [activator]
Cc1ccc(-c2cc(C(=O)NCCCn3ccnc3)c3ccccc3n2)s1,"inconclusive: 28.2 µM [activator, partial curve]",
Cc1cc(C)cc(OCC(=O)N2N=C(c3cccnc3)CC2(O)C(F)(F)F)c1 (centres undefined),,inconclusive: -16.8% [inhibitor]
COc1ccc(OC)c(C2=NOC(C(=O)NCc3ccco3)C2)c1 (centres undefined),"inconclusive: 39.8 µM [inhibitor, single point]",
CCN(CC)Cc1c(O)c(Cl)cc2c(C)cc(=O)oc12,"inconclusive: 35.5 µM [activator, partial curve]",
